TGI and GI50 data for 25 compounds are collected here from PubChem BioAssay (NCI).

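Protocol summary: plate cells (96-well), add compound at 5 concentrations, incubate 48 h, interpolate endpoints linearly. GI50 = concentration required for 50% inhibition of growth. At the TGI there is no net growth.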

In the experiment the test system is NCI-H322M lung. Put plainly: NCI tumour cell line growth inhibition, 48 h.
`COc1ccc2[nH]c3c(c2c1)CC(=O)N1CCC[C@H](C1)CC31OCCCO1` yielded a TGI greater than 100 µM.

In the case of `CCc1c(C)c2cc(-n3c(-c4ccc(OC)cc4)csc3=N)c(O)c(C)c2oc1=O`, the GI50 was 2.19 µM and the TGI is 12.3 µM.

For `COc1cc(-c2ccc[nH]2)[nH]c1/C=C1\N=C(C)C(CC(=O)OCC(C)(C)C)=C1C`, the GI50 is 0.523 µM and the TGI stood at 2.23 µM.

Compound `O=c1[nH]cnc2c1cnn2Cc1cnnn1COCCO` came in with a TGI greater than 100 µM.

In turn, `CC#CCCCC1(C)CCNC1=S` (configuration not stated) registered a TGI greater than 10 µM.

In the case of `CCOCCOCCOCCOCCOCCOCCOCCOCCOCCO` (tested in a mixture with another compound), the GI50 was 4.1 µM and the TGI is 18.7 µM.

Consider `CCCCCCCCCCCCOC1C(COCCN2CCCCC2)OC2OC(C)(C)OC21` (configuration not stated), for which the TGI was 19.1 µM.

In turn, `CC1=C2C=CC(=O)C[C@@]2(C)CCC1` returned a TGI greater than 100 µM.

In turn, `CC(=O)OCC1OC(N=[N+]=[N-])C(OC(C)=O)C(OC(C)=O)C1OC1OC(COC(C)=O)C(OC(C)=O)C(OC(C)=O)C1OC(C)=O` (configuration not stated) showed a TGI greater than 100 µM.

For the compound `Cc1ccc(S(=O)(=O)C2CC2(Cl)Cl)cc1` (configuration not stated), the TGI is greater than 100 µM.

Take `COc1cnccc1Nc1nc(-c2nn(Cc3c(F)cc(OCCO)cc3F)c3ccccc23)ncc1OC`: the GI50 is 2.96 µM and the TGI worked out at 24.3 µM.

For the compound `CCOS(=O)(=O)c1ccc(-c2c3nc(c(-c4ccc(S(=O)(=O)OCC)cc4)c4ccc([nH]4)c(-c4ccc(S(=O)(=O)OCC)cc4)c4nc(c(-c5ccc(S(=O)(=O)OCC)cc5)c5ccc2[nH]5)C=C4)C=C3)cc1`, the TGI is greater than 31.6 µM.

With `COC(=O)c1cc(-c2ccc(S(C)(=O)=O)cc2)[nH]c1N/N=C/c1c(Cl)cccc1Cl`, the GI50 was 1.17 µM and the TGI was greater than 90.8 µM.

`O=C1C=CC(=O)c2c1nc(CBr)[nH]c2=O` returned a TGI greater than 100 µM.

In the case of `Brc1ccc(-c2cc3c(cc2C2SCCS2)OCO3)cc1`, the TGI is greater than 100 µM.

`COc1ccc([I+]c2ccc(OC)cc2)cc1`: the GI50 was 48.2 µM and the TGI is greater than 100 µM.

`COc1ccc(NC(=O)C(=O)Cc2ccc([N+](=O)[O-])c([N+](=O)[O-])c2CC(=O)C(=O)Nc2ccc(OC)cc2OC)c(OC)c1` came in with a TGI greater than 100 µM.

Consider `COc1ccc2c(c1)/c(=C/C#N)c1c3ccccc3[n+](C)n21`, for which the TGI amounted to 39.4 µM.

Take `C(=C/c1nnnn1-c1ccccc1)/Nc1ccccc1`: the TGI was greater than 100 µM.

For `O=c1/c(=C/c2ccccn2)sc2nc3cc4c(cc3n12)OCCO4`, the TGI was greater than 100 µM.

The compound `O=S(O)c1cc(Cl)c(O)c(Cl)c1` showed a TGI greater than 100 µM.

For `COc1ccc2c(c1)/C(=N/OC(C)=O)c1c-2c(OC)nc2ccccc12`, the GI50 is 68.8 µM and the TGI was greater than 100 µM.

`CC[C@]12C=CCN3CC[C@@]4(c5cc(Br)c(OC)cc5N(C)[C@H]4[C@@](O)(C(=O)NC(Cc4c[nH]c5ccccc45)C(=O)OC)[C@@H]1O)[C@@H]32` (some centres not stated) returned a TGI greater than 100 µM.

The compound `CC1(C)C(=O)/C=C\C(=O)C(C)(C)C(=O)/C=C\C(=O)C(C)(C)C2=CC=C(O2)C(C)(C)C(=O)/C=C\C1=O` had a TGI of 36.8 µM.

Take `CCOC(=O)c1cc(C)nc2c1c(=O)n(-c1ccccc1)c(=O)n2CCCCN1CCN(c2ncccn2)CC1`: the TGI is greater than 100 µM.
